This is one part of the list.

First the molecules themselves.
T1: UNK ZnF1-3 (human, UniProt Q9C0B0 31-174)
T1 sequence: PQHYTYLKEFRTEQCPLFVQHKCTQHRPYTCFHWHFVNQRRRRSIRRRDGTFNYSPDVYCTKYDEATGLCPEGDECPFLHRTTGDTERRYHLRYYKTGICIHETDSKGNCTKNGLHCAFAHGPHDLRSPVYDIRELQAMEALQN

B1: chr12:104381838:104381839:+_ENSG00000139372_ENST00000392872|hu_mus|motif|central (ssRNA)
RNA: GGGAGUUCUACAGUCCGACGAUCCAGUAAUCAACAGUAGUGACAAUAAUUUUUAAAUCAUUGACAAAUGAUUAGCUUUCCCGGGAAGAGAAGUUCUGUAUCAGUACAUCCCAUGUACACAGCACCAGUUUAAACAGGAUUAUCCAACAGAGGAUUGAGCAUCA
B2: 216248192_216248848_5114_CDS_ENSG00000115414_ENST00000323926|human|control|control (ssRNA)
RNA: GGGAGUUCUACAGUCCGACGAUCUGGUUUGUCAAUUUCUGUUCGGUAAUUAAUGGAAAUUGGCUUGCUGCUUGCGGGGCUGUCUCCACGGCCAGUGACAGCAUACACAGUGAUGGUAUAAUCAACUCCAGGUUUAAGGCCGCUCAACAGAGGAUUGAGCAUCA
B3: chr13:104551264:104551265:-_ENSMUSG00000032621_ENSMUST00000074616|mus_hu|FALSE|FALSE (ssRNA)
RNA: GGGAGUUCUACAGUCCGACGAUCUCCAAGUGUUGCAAUGUUGGGGUCUAGUGCUGCUGCUGGUAUAGCUCCCAAACUGCUAAGUGAAACACCAAGAGUAGUCAAAGGAUUUGGGGUCGGUAUUGGAAGCAAUCCUGCACCAGGCAACAGAGGAUUGAGCAUCA
B4: chr7:112757510:112757511:-_ENSG00000214194_ENST00000397764|hu_hu|FALSE|FALSE (ssRNA)
RNA: GGGAGUUCUACAGUCCGACGAUCUUUUCGUGCAUAUACCCCCAAGCAGGCACAAAUGCCUGUAAUGCUGAGAACCACACCUAACAAAAGGGCGAUUGCAUCACCGGCUUCUACUGCUUCCACAACAGGCAGCACCAAAAGCAGCAACAGAGGAUUGAGCAUCA
B5: chr4:148551591:148551592:-_ENSMUSG00000063077_ENSMUST00000060537|mus_hu|mus_mus_mus_hu_False|8_78 (ssRNA)
RNA: GGGAGUUCUACAGUCCGACGAUCACCUGACAAAAUUAAAUAUCCCUGUAAAUUAGACAAGAAGCAGCAGGCAACAAAGUCUUUGCUUUGGAAUAUGUGCCAGGAAAAGUCAUCUUGUUUUUAGAUCACACCUUUCAGUUCACACAACAGAGGAUUGAGCAUCA
B6: chr9:35286173:35286174:+_ENSMUSG00000038119_ENSMUST00000042842|mus_mus|motif|central (ssRNA)
RNA: GGGAGUUCUACAGUCCGACGAUCAGUAUUAUUGUUACUUGAUGGAACAUACGUCCAUUUCAGCAUGAUCUGAGUGUCGCGGACAGCCUCUGUGUAUGCGAUGUGAGGUCCAGUUAUUGGGCGAUUGGAAAAACGAUUUGGGAACAACAGAGGAUUGAGCAUCA
B7: chr2:169732673:169732674:-_ENSG00000152253_ENST00000282074|hu_mus|FALSE|FALSE (ssRNA)
RNA: GGGAGUUCUACAGUCCGACGAUCAUACAGAUCCGCUGAUUUCUGCAGUCCUUUCAAUCUCUCUUCAUUAGCUUUGUUAGCAGUGGAAAUGGUUUCCCUCUUCCUAGCGUACUCUUCCUUGAGCUCCUGGAUUUUAGCAGUCAGCAACAGAGGAUUGAGCAUCA
B8: chr3:20008827:20008828:+_ENSMUSG00000002428_ENSMUST00000002502|mus_mus|motif|central (ssRNA)
RNA: GGGAGUUCUACAGUCCGACGAUCUGAGGCUUUAAGAGGUGUUUCUAUUAAAGACAAGAAUGUGGUAAACUGAGAAACAACGGAACUUUUUAUGUUGGGGUCCUUUGUCCGUAAUUCAAUCAAAGCAUGCAUUAGAGCAUUAAUCAACAGAGGAUUGAGCAUCA
B9: 25800408_25800528_2498_CDS_ENSMUSG00000003378_ENSMUST00000003468|mouse|control|control (ssRNA)
RNA: GGGAGUUCUACAGUCCGACGAUCGUUCAUGGUGGACUCCAGCAGGAAGGCAUAGCGGGAGUUGAGGACGCGGGCGAUUCCCUCCUCUGUGCUCUUGACAAACACGCUGGGCUGCUUCGAUUGCAUGUAGUUCCACAUCCGCUGCAACAGAGGAUUGAGCAUCA
B10: chr1:10192443:10192444:+_ENSG00000130939_ENST00000377157|hu_hu|motif|central (ssRNA)
RNA: GGGAGUUCUACAGUCCGACGAUCGACAGCCGCCAUGUAACUGAGAGCAGCCUCACGGGUUUCGCCAUUUAACAAAAUACGGUGCAGAAUCUUAAAAAGCUCUUGCCUUCCGAGCUCUAAGUAAUGCUGCAAUGAUUGGCUAACCAACAGAGGAUUGAGCAUCA
B11: chr17:64801638:64801639:+_ENSG00000154229_ENST00000413366|hu_mus|hu_hu_hu_mus_False|18_58 (ssRNA)
RNA: GGGAGUUCUACAGUCCGACGAUCUAUAUAUAUAUAUACAUAUGUACACAUAUAUAGUAAAACCCUAGUUAAACGUGUAAACUAGCCAUUCAUUUUUAAAAUUACAUCUACAUUAAAAAAGUAAUCUAUCUGAUAGAGUGCCAGCAACAGAGGAUUGAGCAUCA
B12: chr7:20150648:20150649:-_ENSMUSG00000044709_ENSMUST00000117222|mus_hu|FALSE|FALSE (ssRNA)
RNA: GGGAGUUCUACAGUCCGACGAUCCUUGAAGGUAUAUGAAAUAAUGUCACUACAUCGGAGCAGCGCCUCUGCUUGCACACCUAUGGGAGUCUGCAGCUGUGACACGUAGAAGUUGGCCACAUCCAGGUCGGUGGCUCCAAAGUGCAACAGAGGAUUGAGCAUCA
B13: 8912981_8916296_215_3pUTR_ENSMUSG00000023156_ENSMUST00000023924|mouse|control|control (ssRNA)
RNA: GGGAGUUCUACAGUCCGACGAUCAUGUAGUGAUACUCUGAGGGGCUCUUGUAAACUACUCUUUCAUAUGCAGUCGCUGGCAUCUUCCAACAUGGACACCUGCCCCGCGAGGCUAAACCGCCUCGGCCCAGGACGGAGAGGAUCCAACAGAGGAUUGAGCAUCA
B14: 24911426_24911546_652_3pUTR_ENSMUSG00000006476_ENSMUST00000102931|mouse|control|control (ssRNA)
RNA: GGGAGUUCUACAGUCCGACGAUCAGCUGGGCACAUCCUGGGCACUCUUUGGAGCCCUGGCGGCUUCCUGCCCAGCUUUGGCAGGGCCUGCUGAUGUCCUCCCGGCUGCUGCCUGGGCUGGCACGCAGGGGCUGGCUGUGGUGGCAACAGAGGAUUGAGCAUCA

The assay addresses T1, UNK ZnF1-3. Put plainly: nsRBNS (natural sequence RNA bind-n-seq); RBNS binding buffer (assumed for nsRBNS): 25 mM Tris pH 7.5, 150 mM KCl, 3 mM MgCl2, 0.01% Triton X-100, 500 ug/ml BSA, 20 U/ml SUPERase-In, 4 C; UNK is unkempt and MSI1 is Musashi-1; names of the RNAs are library labels; protein concentration not given here; high values mean tight binding.
Regarding B1, the binding signal is 1.25 enrichment R.

Molecule B2 yielded a binding signal of 0.679 enrichment R.

The molecule B3 registered a binding signal of 0.939 enrichment R.

The molecule B4 had a binding signal of 0.947 enrichment R.

With B5, the binding signal came out at 1.27 enrichment R.

B6 returned a binding signal of 1.13 enrichment R.

B7 showed a binding signal of 0.463 enrichment R.

B8 gave a binding signal of 0.696 enrichment R.

B9 gave a binding signal of 1.19 enrichment R.

B10 returned a binding signal of 1.21 enrichment R.

B11 registered a binding signal of 0.957 enrichment R.

Molecule B12 had a binding signal of 1.09 enrichment R.

In turn, B13 came in with a binding signal of 1.32 enrichment R.

As for B14, the binding signal is 0.515 enrichment R.

The values are drawn from PMC12136788.
